From the supplement of paper PMC11417369
± gives the standard deviation of the averaged measurements. This is one part of the list.

Tested on: PfAP2-LT AP2 domain (GST-tagged)
Assay: gcPBM binding intensity (ln(normalized median fluorescence intensity)); higher = stronger DNA binding
How it was run: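 GST-tagged P. falciparum DNA-binding domains, expressed in E. coli (about 25 μg on average), were applied for 1 h to an Agilent 4 × 180k array of primer-extended double-stranded 36-bp intergenic genomic probes plus negative controls. The binding buffer was 1× PBS with 1% milk, 0.2 mg/ml BSA, 0.5% salmon testes DNA and 0.03% Triton X-100. Bound protein was detected with Alexa488 anti-GST antibody and scanned at 488 nm. Binding intensity is the highest Masliner-normalised natural-log median intensity across replicate spots of either probe orientation.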

Sequence | gcPBM binding intensity (ln)
TTTTGATCATCCAAAATATCTTCATCTGAACTACTA [CACACA_negctrl_site939] | 8.57 ± 0.52
GACATATTCCCCCCCACACACACACCCACATACATA [CACACA_site2302] | 11.1 ± 0.18
GTAAAATAAAATATATGTACATATGTATATGAGGTA [XGTACX_site3743] | 9.07 ± 0.44
TTTTTATATAACCTTCTTAATTCTTTTTTTTTTTTT [XGTACX_negctrl_site591] | 8.3 ± 0.61
AAAACAAAATTATGAACATGCAAGGTAAAATTGTAA [TGCATGCA_site775] | 9.02 ± 0.51
AATATAATATAATGCACACATAAAAAAAAAATCAAA [CACACA_site122] | 9.13 ± 0.53
TTTTATGTTTCAAAATGTACATTAAAATATACCATA [XGTACX_site1713] | 8.35 ± 0.41
TTATTTATAAATATTAATTTTTTTTTTTTTTTTTTT [XGTACX_negctrl_site105] | 8.01 ± 0.5
AAAATATATATATATATATATATATGTATACTCCTA [XGTACX_negctrl_site312] | 9.24 ± 0.4
CATATGCATACTATACGTACATATGTATATAATATA [XGTACX_site7738] | 8.84 ± 0.42
TTAATTAAAACGAATACACACATAAATATATAAAAG [CACACA_site1254] | 8.96 ± 0.42
ATATATATATTTTTTAAACACACACCGAAATATTTG [CACACA_site8937] | 9.05 ± 0.3
TTTTATTATTGAATACTAGTATATATAATATGAAGA [CACACA_negctrl_site910] | 8.36 ± 0.42
GTACAAATGTTGTGTATATATACACACATACATATA [XGTACX_negctrl_site276] | 9.11 ± 0.26
AACTTACTTGGACATACACACATATAGATTTATATA [CACACA_site7412] | 9.02 ± 0.37
ATGTAGTTTTATCAGTGTACAAGTATTTTATCACAT [XGTACX_site8958] | 8.96 ± 0.49
ATAAGAATCATATTTAAACACACATACATATATATA [CACACA_site9106] | 8.93 ± 0.41
TTTTTATTGGTGAATACACACGTATATATATATTAT [CACACA_site8756] | 9.03 ± 0.4
ATTAAATAAACCATTACACACTTTTATGTTTTGAAA [CACACA_site1143] | 8.7 ± 0.4
ATTATATTAACAATGACATGCAATTCTTAATCCTTA [TGCATGCA_site648] | 8.54 ± 0.4
AAAAAAAAAAAATACACACACATAAAAAAAAAAATA [CACACA_site1858] | 9.38 ± 0.45
AAAAAAAAATTGTGTACACATAATTATATCATATGT [CACACA_site4500] | 8.81 ± 0.42

Sequence | gcPBM binding intensity (ln)
ATGGATAATAAGTTTACACACAAAAAAAAAGAAAAA [CACACA_site861] | 9.02 ± 0.57
AAATAAAATAAATAATATAAAATAATATATAAAAAA [CACACA_negctrl_site1777] | 8.65 ± 0.63
TTTTGTTAAAAAGATGTATATTTTATAAATATTTAT [CACACA_negctrl_site101] | 8.22 ± 0.54
CACAAACAAAAACACACACACACACCGACAAAAATG [CACACA_site5362] | 10.24 ± 0.092
TATAAATATTTATACACACACACATTAATACCTATA [CACACA_site7604] | 9.71 ± 0.19
AAAAGAAGATAATACAGTACAGAATAATATAAAATA [XGTACX_site5962] | 8.93 ± 0.52
AGAAAGAAGATATATACACACAAAAAAAGATATATA [CACACA_site6779] | 9.17 ± 0.49
TTCTTTCTAGAATATTGTACATATATTGTTATTATA [XGTACX_site8425] | 8.75 ± 0.41
GTCGAGGATATATAAAGTACATATATATATATGATA [XGTACX_site1128] | 8.94 ± 0.42
TAATGTATCTAAAATTGTACAAATATAAATATAAAT [XGTACX_site2764] | 8.71 ± 0.44
CATACATATAAACACACACACACACCCACCCACAAA [CACACA_site8059] | 10.4
TAGTTAGCCCAAGGGGTGCTAATTACTATCTAAATA | 8.46 ± 0.45
TTTATAAATATTCTCACACACTTTTTATTTTAACAA [CACACA_site6454] | 8.63 ± 0.56
AACACCAATTCATATGCACACACATCTGCATATTAT [CACACA_site8523] | 9.63 ± 0.39
TATAGAAGCAAATTATGTACACAATATGGAAAATCA [XGTACX_site3345] | 9.06 ± 0.51
ATTTAAAAAATATATTGTACATATTTTATTATGTTT [XGTACX_site2984] | 8.65 ± 0.6
TACAGTTTTTCTTTGAATTTATCAAGTTTTTTTCCC [XGTACX_negctrl_site60] | 8.67 ± 0.49
TAGTTACCTTAATATTGTACTTTTCTTTCATATATG [XGTACX_site1309] | 8.88 ± 0.56
CACTAAATAAGGAAAGTGCATAAAATAAAGGTTATA [GTGCAC_site9793] | 8.9 ± 0.49
ATAGTTTCTGGTAGCTGTACGAGTCGTAGAGTGCAG [XGTACX_site2022] | 8.83 ± 0.52
GTGTCAAATTTTATAACACACAAAAGGTTATATAAG [CACACA_site7839] | 8.85 ± 0.37
TATTTATACCTATACACACACACACGGATATTTATA [CACACA_site7123] | 9.73 ± 0.17
